The text below walks through data of patent US20180305438A1 (ACCELERON PHARMA, published 2018).

The term Kd denotes the constant that tells how readily two partners part at equilibrium. Low values mean a tighter complex, high ones a looser complex.

Holding throughout (assay): Biacore (SPR); construct expressed in HEK 293 cells
A general note: SPR reads the build-up and loss of mass on a sensor chip optically.

Experiment [1] has as its target T1, hBMP6 (human, UniProt P22004 382-513, limits assumed).
T1 sequence (looked up): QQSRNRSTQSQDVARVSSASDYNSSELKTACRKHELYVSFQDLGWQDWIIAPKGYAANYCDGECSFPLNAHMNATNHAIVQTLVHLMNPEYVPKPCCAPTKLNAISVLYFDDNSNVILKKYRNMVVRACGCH
The source says: (§1) ALK3 ECD variants with N-terminal deletions of 6, 12, 27, or 31 amino acids, C-terminal deletions of 6 or 12 amino acids, and a double-truncation were expressed in HEK 293 cells and purified by Mab chromatography (Protein A column). Biacore™ methodology was used to screen members of the BMP/GDF/TGFβ ligand superfamily for binding to these variants.

Experiment [2] has as its target T2, hBMP2 (human, UniProt P12643 283-396).
T2 sequence (looked up): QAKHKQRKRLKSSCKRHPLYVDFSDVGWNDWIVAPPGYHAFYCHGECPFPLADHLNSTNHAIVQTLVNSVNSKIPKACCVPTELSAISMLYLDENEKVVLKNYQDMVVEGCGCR
From the text: as §1

Experiment [3] deals with T3, hBMP4 (human, UniProt P12644 293-408).
T3 sequence (looked up): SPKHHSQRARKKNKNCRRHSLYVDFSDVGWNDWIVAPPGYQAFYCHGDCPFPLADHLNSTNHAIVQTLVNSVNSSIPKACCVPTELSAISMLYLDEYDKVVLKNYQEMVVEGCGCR
From the text: as §1

Experiment [4] has as its target T4, hBMP7 (human, UniProt P18075 293-431).
T4 sequence (looked up): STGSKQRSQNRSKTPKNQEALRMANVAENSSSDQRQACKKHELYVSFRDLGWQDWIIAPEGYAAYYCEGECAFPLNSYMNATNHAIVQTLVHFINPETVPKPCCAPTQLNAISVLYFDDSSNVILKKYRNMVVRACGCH
From the text: as §1

B1: hALK3(55-152)-hFc (Fc fusion)
chain: TLPFLKCYCSGHCPDDAINNTCITNGHCFAIIEEDDQGETTLASGCMKYEGSDFQCKDSPKAQLRRTIECCRTNLCNQYLQPTLPPVVIGPFFDGSIRTG[skipping human IgG1 Fc and a few adjoining residues]
notes: Expressed in HEK 293 cells; also called ALK3NΔ31
As to B1, the figures for the Kd in experiment [1], in experiment [2] and in experiment [4] were 17 nM, 0.663 nM and 3.67 nM, respectively. Moreover, the binding result in experiment [3] is “no binding”.

B2: hALK3(24-152)-hFc derived from HEK 293 cells (Fc fusion)
chain: QNLDSMLHGTGMKSDSDQKKSENGVTLAPEDTLPFLKCYCSGHCPDDAINNTCITNGHCFAIIEEDDQGETTLASGCMKYEGSDFQCKDSPKAQLRRTIECCRTNLCNQYLQPTLPPVVIGPFFDGSIRTG[skipping human IgG1 Fc and a few adjoining residues]
notes: also called Full Length; full-length ALK3 ECD
Turning to B2, the Kd amounted to 17.3 nM in experiment [1], 0.653 nM in experiment [2], 1.02 nM in experiment [3] and 5.99 nM in experiment [4].

B3: hALK3(24-140)-hFc (Fc fusion)
chain: QNLDSMLHGTGMKSDSDQKKSENGVTLAPEDTLPFLKCYCSGHCPDDAINNTCITNGHCFAIIEEDDQGETTLASGCMKYEGSDFQCKDSPKAQLRRTIECCRTNLCNQYLQPTLPPTG[skipping human IgG1 Fc and a few adjoining residues]
notes: Expressed in HEK 293 cells for the assay; also called ALK3CΔ12
As to B3, in experiment [1], the binding result is recorded as “no binding”. Moreover, the dissociation constant (Kd) was 0.769 nM in experiment [2], 0.446 nM in experiment [3] and 5.9 nM in experiment [4].

B4: hALK3(30-146)-hFc (Fc fusion)
chain: LHGTGMKSDSDQKKSENGVTLAPEDTLPFLKCYCSGHCPDDAINNTCITNGHCFAIIEEDDQGETTLASGCMKYEGSDFQCKDSPKAQLRRTIECCRTNLCNQYLQPTLPPVVIGPFTG[skipping human IgG1 Fc and a few adjoining residues]
notes: Expressed in HEK 293 cells for the assay; also called ALK3NΔ6CΔ6; double-truncated variant
Regarding B4, the binding result in experiment [1] and in experiment [4] was “no binding” in each case. In addition, the figures for the Kd in experiment [2] and in experiment [3] were 0.437 nM and 0.329 nM, respectively.

B5: hALK3(51-152)-hFc (Fc fusion)
chain: APEDTLPFLKCYCSGHCPDDAINNTCITNGHCFAIIEEDDQGETTLASGCMKYEGSDFQCKDSPKAQLRRTIECCRTNLCNQYLQPTLPPVVIGPFFDGSIRTG[skipping human IgG1 Fc and a few adjoining residues]
notes: Expressed in HEK 293 cells; also called ALK3NΔ27
Regarding B5, the Kd in experiment [1] was 8.04 nM; in experiment [2], 1.57 nM; in experiment [4], 4.29 nM. In experiment [3], the binding result is recorded as “no binding”.

B6: hALK3(36-152)-hFc (Fc fusion)
chain: KSDSDQKKSENGVTLAPEDTLPFLKCYCSGHCPDDAINNTCITNGHCFAIIEEDDQGETTLASGCMKYEGSDFQCKDSPKAQLRRTIECCRTNLCNQYLQPTLPPVVIGPFFDGSIRTG[skipping human IgG1 Fc and a few adjoining residues]
notes: Expressed in HEK 293 cells; also called ALK3NΔ12
Consider B6, for which the Kd in experiment [1] was 5.28 nM; in experiment [2], 1.04 nM. For the same molecule, the binding result in experiment [3] and in experiment [4] was “no binding” in each case.

B7: hALK3(24-146)-hFc (Fc fusion)
chain: QNLDSMLHGTGMKSDSDQKKSENGVTLAPEDTLPFLKCYCSGHCPDDAINNTCITNGHCFAIIEEDDQGETTLASGCMKYEGSDFQCKDSPKAQLRRTIECCRTNLCNQYLQPTLPPVVIGPFTG[skipping human IgG1 Fc and a few adjoining residues]
notes: Expressed in HEK 293 cells for the assay; also called ALK3CΔ6
In the case of B7, the binding result in experiment [1] and in experiment [4] was “no binding” each time. The figures for the Kd in experiment [2] and in experiment [3] were 0.532 nM and 0.396 nM, respectively.

B8: hALK3(30-152)-hFc (Fc fusion)
chain: LHGTGMKSDSDQKKSENGVTLAPEDTLPFLKCYCSGHCPDDAINNTCITNGHCFAIIEEDDQGETTLASGCMKYEGSDFQCKDSPKAQLRRTIECCRTNLCNQYLQPTLPPVVIGPFFDGSIRTG[skipping human IgG1 Fc and a few adjoining residues]
notes: Expressed in HEK 293 cells for the assay; also called ALK3NΔ6
Regarding B8, the Kd in experiment [1] was 12.8 nM; in experiment [2], 0.869 nM; in experiment [3] it was 1.61 nM. For the same molecule, the binding result in experiment [4] is “no binding”.
